A compilation of properties of binary mixtures (doi:10.1057/9780230359512_28)
The densities may have been worked out from excess volumes.

Test: xn = mol fraction of the nth substance listed
Settings: 101.3 kPa

CCCCCC[n+]1ccn(C)c1.O=S(=O)([N-]S(=O)(=O)C(F)(F)F)C(F)(F)F + CCO
mass density [kg/m3]
Settings | 298.15 K | 313.15 K | 328.15 K
x2 = 0 | – | 1358.2 | 1344.5
x2 = 0.0649 | 1364.6 | 1350.8 | 1337.2
x2 = 0.0942 | 1361.1 | 1347.3 | 1333.6
x2 = 0.1816 | 1349.4 | 1335.6 | 1321.8
x2 = 0.2856 | – | – | 1304.9
x2 = 0.3939 | 1310.8 | 1296.8 | –
x2 = 0.4966 | 1284.1 | 1270 | 1255.9
x2 = 0.5943 | – | 1236.6 | –
x2 = 0.6976 | – | 1187.6 | –
x2 = 0.8045 | – | 1111.2 | –
x2 = 0.847 | 1082.7 | 1068.5 | 1054.2
x2 = 0.9017 | 1010.2 | 996.2 | –
x2 = 0.9482 | – | 911.4 | –

CC#N + CCCCCC[n+]1ccn(C)c1.O=S(=O)([N-]S(=O)(=O)C(F)(F)F)C(F)(F)F
x1 = 1
Settings | mass density [kg/m3]
298.15 K | 776.6
313.15 K | 760.2
328.15 K | 751.1

CCCCCC[n+]1ccn(C)c1.O=S(=O)([N-]S(=O)(=O)C(F)(F)F)C(F)(F)F + ClCCl
x2 = 0
Settings | mass density [kg/m3]
288.15 K | 1381.1
298.15 K | 1371.9

ClCCl + CCCCCC[n+]1ccn(C)c1.O=S(=O)([N-]S(=O)(=O)C(F)(F)F)C(F)(F)F
mass density [kg/m3]
Settings | 288.15 K | 293.15 K | 298.15 K
x1 = 0.0301 | 1381 | 1376.4 | 1371.7
x1 = 0.1024 | 1380.5 | 1375.8 | 1371.1
x1 = 0.1412 | 1380.2 | 1375.5 | –
x1 = 0.2765 | 1378.9 | 1374.1 | 1369.2
x1 = 0.3243 | 1378.4 | 1373.5 | 1368.7
x1 = 0.4846 | – | 1370.9 | 1365.8
x1 = 0.536 | 1375.1 | 1369.8 | 1364.6
x1 = 0.694 | 1370.6 | – | 1359.3
x1 = 0.7854 | 1366.4 | 1360.3 | 1354.2
x1 = 0.8916 | 1357.6 | 1350.6 | 1343.6
x1 = 0.943 | 1350.1 | – | 1334.6
x1 = 1 | 1334.8 | 1325.7 | 1316.5

CCCO + CCCCCC[n+]1ccn(C)c1.O=S(=O)([N-]S(=O)(=O)C(F)(F)F)C(F)(F)F
x1 = 1
Settings | mass density [kg/m3]
298.15 K | 799.6
313.15 K | 787.4
328.15 K | 774.8

CCCCCC[n+]1ccn(C)c1.O=S(=O)([N-]S(=O)(=O)C(F)(F)F)C(F)(F)F + CO
mass density [kg/m3]
Settings | 298.15 K | 313.15 K
x1 = 0.0198 | 871 | 857
x2 = 0 | – | 1358.2
x2 = 0.0538 | 1367.7 | 1353.9
x2 = 0.1081 | – | 1349.3
x2 = 0.1812 | 1356.2 | 1342.3
x2 = 0.2739 | 1345.9 | 1331.9
x2 = 0.3962 | – | 1314.3
x2 = 0.4824 | 1312.1 | –
x2 = 0.5846 | 1286.2 | –
x2 = 0.6882 | 1248 | 1233.5
x2 = 0.7994 | 1181.3 | 1166.7
x2 = 0.8991 | 1068.5 | 1053.8
x2 = 0.9495 | 966 | –

CCCCCC[n+]1ccn(C)c1.O=S(=O)([N-]S(=O)(=O)C(F)(F)F)C(F)(F)F + CCCO
mass density [kg/m3]
Settings | 298.15 K | 313.15 K | 328.15 K
x2 = 0 | 1371.9 | 1358.2 | 1344.5
x2 = 0.0406 | 1366.3 | 1352.5 | 1338.9
x2 = 0.1017 | – | 1343.3 | –
x2 = 0.1756 | – | 1331 | 1317.3
x2 = 0.2693 | 1326.8 | 1312.9 | –
x2 = 0.3963 | – | 1282.5 | –
x2 = 0.4944 | 1266.5 | – | 1238.6
x2 = 0.608 | 1221.5 | 1207.5 | 1193.5
x2 = 0.7013 | 1171.6 | 1157.7 | –
x2 = 0.8 | – | 1084.6 | 1070.7
x2 = 0.8986 | – | 975.7 | 962.1
x2 = 0.9422 | 920.8 | 907.9 | –

CCCCCC[n+]1ccn(C)c1.O=S(=O)([N-]S(=O)(=O)C(F)(F)F)C(F)(F)F + CC(C)O
mass density [kg/m3]
Settings | 298.15 K | 313.15 K | 328.15 K
x2 = 0 | 1371.9 | 1358.2 | 1344.5
x2 = 0.0621 | 1362.6 | 1348.9 | 1335.2
x2 = 0.0926 | 1357.8 | 1344 | 1330.3
x2 = 0.1725 | 1343.9 | – | 1316.4
x2 = 0.2926 | 1319.1 | 1305.2 | 1291.4
x2 = 0.38 | 1297 | 1283.1 | 1269.2
x2 = 0.5107 | 1255.4 | 1241.3 | 1227.2
x2 = 0.6078 | 1214.3 | 1200.1 | 1185.8
x2 = 0.7028 | 1161.6 | 1147.4 | 1133
x2 = 0.8064 | 1081 | – | 1052.4
x2 = 0.9052 | 964.8 | 951 | 936.7
x2 = 0.9473 | 895.5 | 882 | 867.8

CO + CCCCCC[n+]1ccn(C)c1.O=S(=O)([N-]S(=O)(=O)C(F)(F)F)C(F)(F)F
x1 = 1
Settings | mass density [kg/m3]
298.15 K | 786.6
313.15 K | 772.4

CCCCCC[n+]1ccn(C)c1.O=S(=O)([N-]S(=O)(=O)C(F)(F)F)C(F)(F)F + CC#N
mass density [kg/m3]
Settings | 298.15 K | 313.15 K | 328.15 K
x2 = 0 | 1371.9 | – | 1344.5
x2 = 0.0753 | 1364.4 | 1350.6 | 1336.9
x2 = 0.0943 | 1362.3 | 1348.6 | 1334.9
x2 = 0.1999 | 1349.9 | 1336 | 1322.2
x2 = 0.2894 | – | 1322.9 | –
x2 = 0.3915 | 1318.6 | 1304.5 | 1290.3
x2 = 0.4968 | 1293.7 | 1279.3 | 1265
x2 = 0.6009 | 1260.2 | 1245.5 | 1230.9
x2 = 0.6954 | 1217 | 1202.1 | 1187.2
x2 = 0.8126 | 1133.1 | 1117.7 | –
x2 = 0.8979 | 1028.2 | – | 996.2
x2 = 0.9493 | 928.7 | 912.5 | –

CC(C)O + CCCCCC[n+]1ccn(C)c1.O=S(=O)([N-]S(=O)(=O)C(F)(F)F)C(F)(F)F
x1 = 1
Settings | mass density [kg/m3]
298.15 K | 780.9
328.15 K | 753.9

CC(C)=O + CCCCCC[n+]1ccn(C)c1.O=S(=O)([N-]S(=O)(=O)C(F)(F)F)C(F)(F)F
x1 = 1
Settings | mass density [kg/m3]
288.15 K | 795.7
293.15 K | 790
298.15 K | 784.3

CCO + CCCCCC[n+]1ccn(C)c1.O=S(=O)([N-]S(=O)(=O)C(F)(F)F)C(F)(F)F
x1 = 1
Settings | mass density [kg/m3]
298.15 K | 785.2
313.15 K | 772.2
328.15 K | 758.7

CCCCCC[n+]1ccn(C)c1.O=S(=O)([N-]S(=O)(=O)C(F)(F)F)C(F)(F)F + CC(C)=O
mass density [kg/m3]
Settings | 288.15 K | 293.15 K | 298.15 K
x2 = 0 | 1381.1 | 1376.5 | –
x2 = 0.0517 | 1375.5 | 1370.9 | 1366.2
x2 = 0.1039 | 1368.9 | 1364.2 | –
x2 = 0.1657 | 1360.8 | 1356 | –
x2 = 0.2655 | 1345.1 | 1340.4 | 1335.7
x2 = 0.3641 | 1325.7 | – | 1316.2
x2 = 0.4927 | 1293.3 | 1288.5 | 1283.7
x2 = 0.5924 | 1258.7 | 1253.8 | 1248.9
x2 = 0.6842 | – | 1211.1 | 1206.2
x2 = 0.8083 | 1127.3 | 1122.2 | 1117
x2 = 0.8954 | 1025.1 | 1019.8 | 1014.5
x2 = 0.9472 | 933.8 | 928.3 | 922.9
